Data taken from PubChem BioAssay AID588855 (National Center for Advancing Translational Sciences (NCATS), 2011).
The campaign covered roughly 410,000 compounds. About 5,000 (1.2%) were called active. Inconclusive means that the source gave no clear call. Such entries were picked first, then a sample of the others. The call rests on the fitted dose curve; in most records, active means well fitted inhibition curve with a large enough effect; inconclusive means small, poorly fitted or top-dose-only effect; inactive means no such curve, though single readings can be large or run the other way. Where the call is inconclusive, the potency comes from a doubtful curve fit.

Assay: qHTS for Inhibitors of TGF-b; further: nearly all actives have a fitted effect of over 65% in size
Settings: HepG2 CAGA-GFP TGF-b/SMAD3 reporter, GFP fluorescence, 18 h, TGF-beta stimulated, 500 pg/mL final; series mostly up to 46.1 µM
Summary of the method: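 HEPG2 CAGA-GFP, 1000 cells/well; 2 h settle, 37 C; cpd via pin tool; TGF-b 500 pg/mL final; 18 h, 37 C; GFP imaging ex488/em500-530; %Activity normalised to -TGF-b and +DMSO controls; CRC fit, curve class.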
Potency means the concentration at half of the fitted maximal effect; tags describe the fitted curve by direction and shape.

SMILES | Potency
Oc1c(C(c2cccc(Br)c2)N2CCCC2)sc2nc(-c3ccco3)nn12 (configuration not stated) | inactive
CCCC[n+]1ccn(C2=C([O-])c3ccccc3C(=O)/C2=N\S(=O)(=O)c2ccccc2)c1 | active: 8.91 µM
Cc1ccc(C)c(N2CCN(C(=O)CCc3c(C)nn(-c4ccc(N5CCCC5)nn4)c3C)CC2)c1 | active: 12.6 µM
Cc1ccc(C(=O)Nc2c(C)nc3ccccn3c2=O)cc1 | inconclusive: 5.62 µM [inhibitor, single point]
COc1ccc(N2CCN(CC(=O)Nc3ccc(C)c(C)c3)CC2)cc1 | inconclusive: 7.08 µM [inhibitor, full curve, poor fit]
CN(C)CCNc1nc2sc3c(c2c(=O)n1-c1ccccc1)CCCCC3 | inactive
Cc1ccc(NC2SC(=O)N(Cc3cccc(C(=O)O)c3)C2=O)cc1 (configuration not stated) | inconclusive: 35.5 µM [inhibitor, single point]
O=C(NCc1ccccc1)C(c1cccs1)N(C(=O)c1csnn1)C1CC1 (configuration not stated) | inconclusive: 35.5 µM [inhibitor, single point]
Cc1cccc(C)c1NC(=O)c1sccc1SCC#N | inactive
Cc1ccc(-c2c3c(=O)n(C)c(=O)n(C)c3cn2-n2cnnc2)cc1 | inconclusive: 25.1 µM [inhibitor, single point]
CCOC(=O)/C=C1/SCC(=O)N1CCOc1cccc(Br)c1 | inactive
O=C(CCn1c(=S)[nH]c2ccccc2c1=O)N1CCCCC1 | inactive
CC1CN(C(=O)CCC(=O)NCCCN2CCN(Cc3ccccc3)CC2)c2cc(Cl)ccc2O1 (configuration not stated) | inconclusive: 35.5 µM [inhibitor, single point]
CC(=O)c1ccc(NC(=S)N2c3ccccc3CC2C)cc1 (configuration not stated) | inconclusive: 12.6 µM [inhibitor, single point]
COCCNC(=S)N/N=C(\C)c1ccc(OC(F)F)cc1 | inconclusive: 12.6 µM [inhibitor, partial curve]
Cc1ccc(S(=O)(=O)n2cc(CO)c3ccccc32)cc1 | inconclusive: 35.5 µM [inhibitor, single point]
COc1ccc2c(c1)C(=O)C(=O)N2CC1COc2ccccc2O1 (configuration not stated) | inconclusive: 20 µM [inhibitor, single point]
COc1ccc(CC(=O)Nc2nc(C)cs2)cc1 | inactive
Cc1ccc2cc(/C=C/C(=O)c3ccco3)c(Cl)nc2c1 | inconclusive: 31.6 µM [inhibitor, single point]
CC(=O)CCc1ccc(OCC(O)CNCCOc2ccc(C)cc2)cc1 (configuration not stated) | inactive
COc1ccc2cc1Oc1ccc(cc1)C[C@H]1c3c(cc4c(c3Oc3cc5c(cc3OC)CCN(C)[C@@H]5C2)OCO4)CCN1C | inconclusive: 35.5 µM [inhibitor, single point]
O=C(N/N=C/c1cc(Cl)cc(Cl)c1O)c1ccncc1 | inconclusive: 0.631 µM [inhibitor, full curve]
COc1ccc(N2CC(C(=O)N/N=C/c3ccc([N+](=O)[O-])cc3)CC2=O)cc1 (configuration not stated) | inactive

SMILES | Potency
Cc1ccccc1OCC(=O)N/N=C/c1ccc([N+](=O)[O-])o1 | active: 17.8 µM
CCN(CC)S(=O)(=O)c1ccc2c(c1)c(=O)c(C(=O)N1CCN(c3ccc(OC)cc3)CC1)cn2C | inconclusive: 0.562 µM [inhibitor, full curve, poor fit]
CN=c1scc(-c2cc(OC)ccc2OC)n1/N=C/c1c(C)[nH]c2ccccc12 | inconclusive: 35.5 µM [inhibitor, single point]
O=C(CCc1ccccc1)NC(NC(=S)Nc1ccc(Br)cc1)C(Cl)(Cl)Cl (configuration not stated) | inconclusive: 12.6 µM [inhibitor, partial curve, poor fit]
CCOC(=O)N1CCN(C/C(Cl)=C/c2ccccc2)CC1 | inactive
O=C(NCCCN1CCN(c2ccccc2F)CC1)c1ccc2nc(Cc3ccccc3)oc2c1 | inconclusive: 35.5 µM [inhibitor, single point]
O=C(NC(=S)NCC1CCCO1)c1ccccc1[N+](=O)[O-] (configuration not stated) | inactive
CCOc1ccccc1OCCC(=O)OCC(=O)Nc1c(C)nn(-c2ccccc2)c1C | inactive
Cc1ccc(-c2nnc(Nc3ccc(F)cc3)c3ccccc23)cc1S(=O)(=O)NC(C)C | inactive
Cc1onc(-c2c(F)cccc2Cl)c1C(=O)OCC(=O)c1c[nH]c2ccccc12 | inconclusive: 17.8 µM [inhibitor, partial curve, poor fit]
COc1ccc(CN(C)C(=O)C2CSC3(C)CCC(=O)N23)c(OC)c1 (configuration not stated) | inconclusive: 6.31 µM [inhibitor, single point]
CCOC(=O)c1c(NC(=O)CSc2nnc(-c3ccc(OC)cc3)o2)sc2c1CCC2 | inconclusive: 5.62 µM [inhibitor, single point]
CC1CCN(S(=O)(=O)c2ccc3nc(Nc4cccc(F)c4)ccc3c2)CC1 | inconclusive: 35.5 µM [inhibitor, single point]
CCc1nc2c(OCc3ccccc3C(=O)OC)cccn2c1N(C)C(=O)c1cccc(OC)c1 | inactive
O=C(Nc1nc(-c2ccc(S(=O)(=O)N3CCCCCC3)cc2)cs1)c1ccccc1 | inactive
O=C(NC(=S)Nc1cccc(Cl)c1N1CCCCC1)c1ccco1 | inconclusive: 35.5 µM [inhibitor, single point]
COc1ccc(/C=C2\CCc3ccccc3C2=O)cc1CN1CCOCC1 | inconclusive: 35.5 µM [inhibitor, single point]
Cc1ccc(-c2cc(C(=O)NCCCN3CCOCC3)c3ccc(Cl)c(C)c3n2)cc1 | inactive
CCCCn1c(SCC(=O)N2CCOCC2)nnc1-c1ccoc1C | inconclusive: 22.4 µM [inhibitor, single point]
CCc1noc(C)c1C(=O)OCC(=O)N(C)c1c(N)n(Cc2ccccc2)c(=O)[nH]c1=O | inconclusive: 0.112 µM [inhibitor, full curve, poor fit]
O=C(NNC(=O)c1cccc(S(=O)(=O)N2CCN(c3ccccc3)CC2)c1)c1ccc(Cl)cc1 | inconclusive: 35.5 µM [inhibitor, single point]
CCCn1c(=O)c2sccc2n2c(CCCC(=O)N3CCN(c4ccc(OC)cc4)CC3)nnc12 | inconclusive: 0.447 µM [inhibitor, full curve, poor fit]
O=C(CCl)N1c2ccccc2SCC1c1ccccc1 (configuration not stated) | inconclusive: 20 µM [inhibitor, single point]

SMILES | Potency
CC(C)(C)c1ccc(C(=O)NNC(=O)c2ccccc2Br)cc1 | inconclusive: 6.31 µM [inhibitor, single point]
O=C1[C@@H]2Cc3c([nH]c4ccccc34)C(c3cccc([N+](=O)[O-])c3)N2C(=O)CN1CCCO (some centres not stated) | inactive
CCOC(=O)CNC(=O)CSc1nc(Cc2ccccc2)nc2ccccc12 | inconclusive: 8.91 µM [inhibitor, partial curve, poor fit]
C/C(CS(=O)(=O)c1ccc(Cl)c(Cl)c1)=N/NC(N)=S | inconclusive: 35.5 µM [inhibitor, single point]
CN1CCc2c(sc3c2C(=O)NC(/C=C\c2ccccc2)N3)C1 (configuration not stated) | inconclusive: 8.91 µM [inhibitor, partial curve]
Cc1ncc([N+](=O)[O-])n1CCOC(=O)c1cc(Cl)cc(Cl)c1N | inactive
COc1ccc(C(C)(O)c2nc(-c3cccc(C(F)(F)F)c3)cs2)cc1 (configuration not stated) | inconclusive: 35.5 µM [inhibitor, single point]
Cc1ccc(-c2cnc(C3CC3)o2)cc1S(=O)(=O)Nc1ccc(F)cc1Cl | inconclusive: 35.5 µM [inhibitor, single point]
CCCCNc1c(-c2cccc(-c3cc(C(C)=O)cs3)c2)nc2cc(C)ccn12 | inconclusive: 12.6 µM [inhibitor, partial curve, poor fit]
CC(C)CCNC(=S)Nc1ccc(Br)cc1 | inconclusive: 35.5 µM [inhibitor, single point]
C=CCn1c(COc2ccccc2)nnc1SCC(=O)N/N=C/c1cc(Cl)ccc1O | inconclusive: 11.2 µM [inhibitor, partial curve, poor fit]
Cc1cc(C)c2nc(-c3ccccn3)cc(C(=O)n3cccn3)c2c1 | inactive
COc1cccc(CNc2sc3c(c2C(=O)Nc2ccc(OC)cc2OC)CCC3)c1 | inconclusive: 35.5 µM [inhibitor, single point]
CCCN(CCC)C(=O)CSc1nc2n[nH]c(C)c2c(=N)n1-c1ccc(OCC)cc1 | inconclusive: 11.2 µM [inhibitor, partial curve, poor fit]
O=C(/C=C/c1ccccc1)NC(NC(=S)Nc1cc(Cl)ccc1Cl)C(Cl)(Cl)Cl (configuration not stated) | active: 2.24 µM
O=c1oc(-c2cccc(Cl)c2)nc2c1cnn2-c1ccccc1 | inconclusive: 3.16 µM [inhibitor, single point]
O=S(=O)(Cc1ccccc1)N1CCCC(c2nc(-c3ccc(F)cc3)no2)C1 (configuration not stated) | inconclusive: 11.2 µM [inhibitor, partial curve, poor fit]
COc1cccc(-c2cnc3c(NC(C)=O)cc(-c4ccsc4)cn23)c1 | inconclusive: 4.47 µM [inhibitor, full curve, poor fit]
CNC(=S)NNC(=O)c1sc2cc(C(F)(F)F)cnc2c1-c1cccnc1 | inactive
N#Cc1cnn2ccc(-c3ccc4c(c3)CCC4)nc12 | inactive
COc1ccc(CN(CC(=O)NCC2CCCO2)C(=O)CNS(=O)(=O)c2ccc(C)cc2)cc1 (configuration not stated) | inconclusive: 35.5 µM [inhibitor, partial curve, poor fit]
